In article PMC4336329 (PLoS ONE, 2015):
Out of some 310,000 compounds screened, about 2,200 (0.71%) showed an effect of 50% or more. Effects have a minus sign here. Some of the results follow.

molecular target: human ether-à-go-go-related gene (hERG) potassium channel (human, UniProt Q12809); assay: primary screen, population patch clamp on CHO cells stably expressing hERG
Sequence (Q12809 whole entry, looked up): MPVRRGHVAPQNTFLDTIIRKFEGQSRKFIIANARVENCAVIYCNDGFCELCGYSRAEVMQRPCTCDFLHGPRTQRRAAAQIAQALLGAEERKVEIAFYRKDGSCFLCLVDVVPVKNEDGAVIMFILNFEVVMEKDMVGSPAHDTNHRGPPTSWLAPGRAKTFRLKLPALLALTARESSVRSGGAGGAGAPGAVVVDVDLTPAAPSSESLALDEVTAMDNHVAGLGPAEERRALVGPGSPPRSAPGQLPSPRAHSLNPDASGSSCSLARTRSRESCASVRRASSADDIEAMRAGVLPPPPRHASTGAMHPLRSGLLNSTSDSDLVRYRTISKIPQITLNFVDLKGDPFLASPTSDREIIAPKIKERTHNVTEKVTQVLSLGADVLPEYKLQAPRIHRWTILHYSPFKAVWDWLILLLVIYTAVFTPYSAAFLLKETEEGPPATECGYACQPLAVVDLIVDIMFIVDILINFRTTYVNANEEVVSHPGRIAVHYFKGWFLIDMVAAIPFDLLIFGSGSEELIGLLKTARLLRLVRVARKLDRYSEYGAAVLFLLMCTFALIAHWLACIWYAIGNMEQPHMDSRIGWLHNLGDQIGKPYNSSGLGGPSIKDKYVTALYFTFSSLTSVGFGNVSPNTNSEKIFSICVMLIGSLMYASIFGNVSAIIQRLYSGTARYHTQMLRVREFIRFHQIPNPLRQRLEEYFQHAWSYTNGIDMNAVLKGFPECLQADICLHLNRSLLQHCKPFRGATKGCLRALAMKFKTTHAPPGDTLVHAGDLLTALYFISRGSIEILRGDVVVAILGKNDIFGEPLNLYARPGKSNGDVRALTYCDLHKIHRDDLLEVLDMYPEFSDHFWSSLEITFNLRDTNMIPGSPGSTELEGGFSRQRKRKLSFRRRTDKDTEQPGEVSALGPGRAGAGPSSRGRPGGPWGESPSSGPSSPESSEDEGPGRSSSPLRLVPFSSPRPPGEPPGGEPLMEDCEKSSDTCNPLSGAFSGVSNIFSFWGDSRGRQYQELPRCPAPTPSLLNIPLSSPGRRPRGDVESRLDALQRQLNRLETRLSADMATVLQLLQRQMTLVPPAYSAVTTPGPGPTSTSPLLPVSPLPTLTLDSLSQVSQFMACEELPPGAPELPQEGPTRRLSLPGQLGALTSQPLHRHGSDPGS

Row | Compound | hERG current change (%, negative = inhibition) at 1uM [%]
1 | COc1ccc(Cl)cc1NS(=O)(=O)c1cccc(C(=O)NCC(c2ccco2)N2CCCC2)c1 (centres unmarked) | 6.73
2 | COc1ccccc1C(=O)C1CCCN(C(=O)CSc2ccccn2)C1 (centres unmarked) | -3.2
3 | COc1ccnc(Oc2ccccc2)c1C(N)=O | 13.5
4 | Cc1ccc2c(Cl)cc(Cl)c(OCC(=O)Nc3cccc(S(=O)(=O)N(C)C)c3)c2n1 | 6.17
5 | CC(C)(C)c1ccc(C(=O)C2CCCN(C(=O)CCn3cncn3)C2)cc1 (centres unmarked) | 3.76
6 | CCOC(=O)C1=C(C)NC(=O)NC1c1ccc(OC(=O)c2ccco2)cc1 (centres unmarked) | 5.81
7 | CCN(CC)S(=O)(=O)c1cccc(C(=O)N/N=C2\CCCC(=O)C2)c1 | 7.45
8 | Oc1c(CN2CCN(c3ccccc3)CC2)cc(Br)c2cccnc12 | 0.303
9 | Cc1cc(C)cc(N2C(=O)NC(=O)/C(=C\c3cc(C)n(C)c3C)C2=O)c1 | 10.5
10 | Cc1cc(C)c(S(=O)(=O)N2CCN(C)CC2)c(C)c1 | 11.2
11 | O=C(Nc1ccccc1O)c1cccc(S(=O)(=O)Nc2ccccc2O)c1 | 15.1
12 | COC(=O)c1cc(C(=O)c2ccc(C(C)(C)C)cc2)c[nH]1 | 8.12
13 | Cc1n[nH]c(C)c1C(=O)CC1(O)C(=O)N(CCc2ccccc2)c2ccc(Br)cc21 (centres unmarked) | 15.3
14 | O=C(NCc1ccc2c(c1)OCO2)c1cccc(N2CCCC2=O)c1 | 7.94
15 | O=C(c1cccc(Br)c1)N1CCN(S(=O)(=O)N2CCOCC2)CC1 | 2.74
16 | COc1ccccc1NC(=O)C(=O)N/N=C(\C)CC(=O)Nc1ccc(OCc2ccccc2)cc1 | 9.87
17 | CCN(CCNC(=O)Cn1c(=O)sc2ccccc21)c1ccccc1 | -10.1
18 | Cc1nn(Cc2c(F)c(F)c(F)c(F)c2F)c(C)c1NC(=O)c1nn(C)cc1Br | 8.25
19 | O=C(O)CCC(=O)Nc1sc2c(c1C(=O)NCc1ccccc1)CCCC2 | 0.699
20 | O=C(Nc1ccccc1)/C(=C/c1ccccc1)NC(=O)c1ccco1 | 15.7
21 | O=C(COc1cccnc1[N+](=O)[O-])Nc1ccc(S(=O)(=O)N2CCOCC2)cc1 | 14.2

Row | Compound | hERG current change (%, negative = inhibition) at 1uM [%]
22 | Cc1ccc(-c2nn3c(C)nnc3c3ccccc23)cc1S(=O)(=O)NC(C)c1ccccc1 (centres unmarked) | -14.4
23 | COc1ccccc1NS(=O)(=O)c1cccc(C(=O)NNC(=O)c2ccc(=O)[nH]c2)c1 | 8.79
24 | CC(C)(C)c1ccc(C(=O)NCC(=O)N2CCCC2)cc1 | 17.7
25 | CC(OC(=O)CCCc1c[nH]c2ccccc12)C(=O)Nc1ccc(S(N)(=O)=O)cc1 (centres unmarked) | 0.844
26 | OCC1(CC2CCCCO2)CCN(Cc2ccccc2-c2ccco2)CC1 (centres unmarked) | 3.52
27 | CCOC(=O)N1CCc2c(sc3nc(SC(C)C)n(N)c(=O)c23)C1 | 4.79
28 | Cc1nc(SCCOc2ccccc2)[nH]c(=O)c1Cc1ccccc1 | 11.5
29 | CC(C)Nc1nc(-c2ccccc2)nc(-n2ccnc2)n1 | -1.93
30 | N/C(=N\OC(=O)c1ccc(Br)o1)c1cccnc1 | 12.4
31 | CC(=C/c1ccccc1)/C=N/n1c(C)n[nH]c1=S | 16.3
32 | CCOc1cc(-c2cn(S(=O)(=O)c3cccc4nsnc34)nc2N)cc(OCC)c1OCC | 3.48
33 | COc1cccc(-n2c(O)c(C=NCc3ccc4c(c3)OCO4)c(=O)[nH]c2=O)c1 | -1.17
34 | Cc1ccc(NS(=O)(=O)c2ccc(-c3csc(C)n3)s2)c(C)c1 | 14.3
35 | CN(Cc1ccccc1)C(=O)CN1CCCC1=O | 5.46
36 | Cc1noc(C(=O)Nc2ccc(C#N)cc2)c1Cl | 15.1
37 | CCC(c1nnnn1CS(=O)(=O)c1ccc(C)cc1)N1CCN(c2nc3ccccc3s2)CC1 (centres unmarked) | 10
38 | Clc1ccc(-c2nnc(-c3ccccc3)o2)c(Cl)c1 | 0.851
39 | CN(C(=O)COC(=O)CN1C(=O)c2cccc([N+](=O)[O-])c2C1=O)c1ccccc1 | 6.16
40 | CC(C)c1ccccc1NC(=S)NCCCn1ccnc1 | 14.1
41 | COc1ccc(-c2csc(N3CCC(c4ccccc4)C3)n2)cc1 (centres unmarked) | 14.7
42 | CC(=O)c1ccccc1OCC(=O)Nc1cccc(S(=O)(=O)N2CCCC2)c1 | 9.57

Row | Compound | hERG current change (%, negative = inhibition) at 1uM [%]
43 | Cc1cc(C)cc(-n2nnnc2-c2cn(C)nc2C(F)(F)F)c1 | 11.8
44 | Clc1cccc(Cl)c1-c1nnc2cccc(Cl)n12 | -2.05
45 | COc1ccc(/C=C/C(=O)c2ccc(OC)cc2OC)cc1 | 9.96
46 | COCc1cc(=O)[nH]c(/N=C(\N)Nc2ccc(C)cc2C)n1 | 15.6
47 | Cc1nc2ccccc2nc1CSc1nnc(N)s1 | 7.12
48 | CCCn1c(=O)n(C)c(=O)c2c(SCC(=O)NC34CC5CC(CC(C5)C3)C4)nc(CC(C)C)nc21 | 10.2
49 | OCCC1CN(Cc2cccn2-c2ncccn2)CCN1Cc1ccc(F)cc1 (centres unmarked) | -74.7
50 | COC(=O)c1cc(-c2ccccc2)sc1NC(=O)CN1C(=O)c2ccccc2C1=O | 12.3
51 | O=C(CSc1ccccc1)Nc1cc(S(=O)(=O)N2CCOCC2)ccc1N1CCOCC1 | 17.4
52 | COc1ccc2c(c1)CCCC21NC(=O)N(CC(=O)c2cc(F)ccc2F)C1=O (centres unmarked) | 4.68
53 | O=C1[C@H]2[C@H]3[C@H](O)[C@H](O)C/C(=N\OC[C@@H](O)COCc4ccco4)[C@@H]3CC[C@H]2C(=O)N1c1ccc(F)cc1F | 19.3
54 | Cc1cccc(N2CCN(C(c3ccc(N(C)C)cc3)c3nnnn3C(C)(C)C)CC2)c1C (centres unmarked) | -2.35
55 | Cc1ccc(NC(=O)CSc2nnc(NC(=O)c3ccc(S(=O)(=O)N4CCOCC4)cc3)s2)cc1 | 9
56 | C=CCNC(=O)NC(=O)COC(=O)c1nc2nccc(C)n2n1 | 12
57 | COc1cccc(NC(=O)COC(=O)/C=C/c2ccc(Cl)cc2Cl)c1 | 9.11
58 | Cc1ccc(C(=O)N2CCCC(C(F)(F)F)C2)cc1S(=O)(=O)N1CCOCC1 (centres unmarked) | 5.54
59 | COc1ccc(C(=O)NCc2nnc(SCC(=O)NCc3ccc(F)cc3)o2)cc1 | 8.88
60 | CCc1nc(N)c(C#N)c(-c2ccco2)c1C | 12.1
61 | COc1cc2c3c(c1)C(C)CC(C)(C)N3C(=O)C2=O (centres unmarked) | -7.9
62 | COc1cc([C@H]2c3[nH]c4ccccc4c3C[C@H]3C(=O)N4[C@@H](c5cc(OC)c(OC)c(OC)c5)c5[nH]c6ccccc6c5C[C@H]4C(=O)N23)cc(OC)c1OC | 2.52
63 | CC(=O)N1CN(S(=O)(=O)c2ccc(C)cc2)CC1C (centres unmarked) | 11

Row | Compound | hERG current change (%, negative = inhibition) at 1uM [%]
64 | COc1ccc(N2C(=O)CC(NC3CCCCNC3=O)C2=O)cc1 (centres unmarked) | 9.58
65 | CCN(Cc1cc2cc(OC)ccc2[nH]c1=O)C(=O)Cc1ccc(OC)cc1 | 4.5
66 | Cc1nc2ccc(S(=O)(=O)NC(C(=O)N3CCC(C)CC3)C(C)C)cc2s1 (centres unmarked) | 5.19
67 | O=C(c1ccc(Cl)c(Cl)c1)N1CCC(=O)N(C(COCc2ccc(Cl)cc2)Cc2ccccc2)CC1 (centres unmarked) | 0.912
68 | CC(C)N(C(=O)CC1ON(C)C(=O)N1c1ccc(Cl)cc1)C(C)C (centres unmarked) | 3.83
69 | Cl.O=C(N1CCN(Cc2ccccc2)CC1)C12CC3CC(CC(C3)C1)C2 | 18.4
70 | CCOc1ccc(-c2cc(C)[n+](CCc3ccc(OC)c(OC)c3)c(-c3ccc(OCC)cc3)c2)cc1.[O-][Cl+3]([O-])([O-])[O-] | -70.1
71 | O=C(NCc1cccnc1)c1ccc(S(=O)(=O)N2CCCCC2)cc1 | 9.9
72 | Cc1nonc1C(=O)N/N=C/c1ccncc1 | 0.161
73 | CCN(CC)CC.NN1C(=O)/C(=C2/Sc3ccccc3N2CCCS(=O)(=O)O)SC1=S | 2.9
74 | CC(C)c1ccc(C(=O)NCCCN2CCN(CCCNC(=O)c3ccc(C(C)C)cc3)CC2)cc1 | -86.4
75 | Cc1[nH]c(C)c(S(=O)(=O)N2CCN(c3ccccc3F)CC2)c1C(=O)N1CCCCC1 | 9.66
76 | CCOC(=O)CN1C(=O)N[C@@H](c2cccs2)C(C(=O)OC)=C1C | 1.4
77 | O=C(c1cc2cc(F)ccc2[nH]1)N1CCC(Cc2ccccc2)CC1 | 14.2
78 | O=C(CSc1nnc(CNc2cccc(C(F)(F)F)c2)n1Cc1ccco1)NCc1ccco1 | 6.48
79 | CC1CCCCN1S(=O)(=O)c1coc(C(N)=O)c1 (centres unmarked) | 9.23
80 | COc1ccc2[nH]c(=O)c(CN(Cc3cccs3)S(=O)(=O)c3cccc4nsnc34)cc2c1 | 2.55
81 | CCc1ccc(N/C(SC)=C(/C#N)C(N)=O)cc1 | -5.62
82 | COc1ccc(C(=O)/C=C/Nc2cccc(C)n2)cc1OC | 20.2
83 | CCCCCCC(=O)c1c([O-])n(-c2ccccc2OC)c(=O)[nH]c1=O.C[NH+](C)C | 14.1
